“And” between values parts separate entries of the source, which are not always exact repeats. Equal entries are not always repeated. Screen size: about 110,000 compounds; about 230 (0.21%) showed an effect of 50% or more. Some of the results follow.

The source of these data is article PMC6919601, “Identification of Plasmodium dipeptidyl aminopeptidase allosteric inhibitors by high throughput screening” (PLoS ONE, 2019).
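Further: 30 min substrate incubation versus DMSO and 10 µM JCP410 controls.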

DPAP1, sequence (Q8IIJ9 whole entry, looked up): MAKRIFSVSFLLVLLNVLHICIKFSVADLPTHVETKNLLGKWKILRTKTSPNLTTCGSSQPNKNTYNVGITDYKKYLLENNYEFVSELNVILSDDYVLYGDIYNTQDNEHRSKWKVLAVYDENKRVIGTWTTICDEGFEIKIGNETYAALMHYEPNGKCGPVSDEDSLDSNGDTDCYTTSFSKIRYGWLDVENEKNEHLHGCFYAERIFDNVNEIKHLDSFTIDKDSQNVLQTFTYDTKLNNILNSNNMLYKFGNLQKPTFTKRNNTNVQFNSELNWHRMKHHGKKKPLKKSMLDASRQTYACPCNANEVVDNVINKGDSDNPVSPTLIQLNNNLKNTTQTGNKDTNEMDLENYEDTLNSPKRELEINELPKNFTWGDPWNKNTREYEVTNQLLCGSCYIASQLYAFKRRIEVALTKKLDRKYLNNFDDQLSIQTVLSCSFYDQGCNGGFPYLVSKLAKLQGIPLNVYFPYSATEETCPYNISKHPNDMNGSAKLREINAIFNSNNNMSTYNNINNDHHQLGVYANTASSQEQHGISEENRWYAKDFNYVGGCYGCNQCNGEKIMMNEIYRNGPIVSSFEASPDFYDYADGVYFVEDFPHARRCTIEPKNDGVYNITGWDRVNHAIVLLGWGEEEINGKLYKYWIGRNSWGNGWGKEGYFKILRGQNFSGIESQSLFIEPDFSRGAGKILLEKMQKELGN

This experiment addresses DPAP1 (Plasmodium falciparum, UniProt Q8IIJ9). Kind of experiment: primary screen, percent inhibition; read by cleavage of a fluorogenic dipeptide substrate; higher = more effect of the substance. Details: species or system P. falciparum D10 trophozoite lysates; single well.
Take `COc1ccc(NC(=O)CN(c2ccc(Cl)cc2Cl)S(=O)(=O)c2ccccc2)cc1OC`: the “% Inhibition @ 10 uM” value was -5.92%.

Take `COc1cccc(C2C3=C(O)CC(C)(C)CC3=Nc3ccccc3N2C(C)=O)c1` (stereo not shown): the “% Inhibition @ 10 uM” value came to 2.69%.

Regarding `CN(C)c1nc2c(c(=O)n(Cc3ccccc3)c(=O)n2C)n1Cc1ccccc1`, the “% Inhibition @ 10 uM” value was 0.35%.

On to `O=[N+]([O-])c1ccccc1S(=O)(=O)NCCO`, for which the “% Inhibition @ 10 uM” value amounted to 7.77%.

`CC1C=CCC2C(=O)N(c3ccc(Cl)cc3O)C(=O)C12` (stereo not shown): the “% Inhibition @ 10 uM” value is listed as -2.78%.

In the case of `C#CC(C)(O)C1C=C2C(C)(C)CCCC2(C)n2c(=O)c3ccccc3c(=O)n21` (stereo not shown), the “% Inhibition @ 10 uM” value was -0.637%.

With `Cc1ccc(-n2nc(C)c3c(C)c(CCC(=O)NCCN4CCN(C)CC4)c(C)nc32)cc1C`, the “% Inhibition @ 10 uM” value came out at 0.747%.

As for `CSc1ccc(-c2ncnn2-c2cccc(Cl)c2C)cc1`, the “% Inhibition @ 10 uM” value is -5.26%.

In the case of `CCOC(=O)c1c(C)c(-c2ccccc2)n(CC(=O)NCCN(C)C)c1C`, the “% Inhibition @ 10 uM” value is given as 3.32%.

As to `O=C1NC(=O)C(=Cc2cccn2-c2ccc(Br)cc2)C(=O)N1`, the “% Inhibition @ 10 uM” value came to 0.208%.

As to `O=C(c1cnc2ccc(S(=O)(=O)N3CCOCC3)cc2c1O)N1CCN(c2ccccn2)CC1`, the “% Inhibition @ 10 uM” value is -1.46%.

For `COCCN(CCOC)CC(=O)Nc1cc(C)c2c(=O)oc3ccccc3c2n1`, the “% Inhibition @ 10 uM” value was -1.27%.

On to `Cc1c(Cl)cccc1-n1c(C)cc(/C=C2/C(=N)N3C(=NC2=O)SN=C3S(C)(=O)=O)c1C`, for which the “% Inhibition @ 10 uM” value is -7.21%.

Consider `Cc1nn(-c2ccccc2)c(-n2cccc2)c1C(=O)NCc1cccnc1`, for which the “% Inhibition @ 10 uM” value stood at 1.8%.

For `O=C(c1ccc2c(Cl)c3c(nc2c1)CCC3)N1CCN(c2ccccn2)CC1`, the “% Inhibition @ 10 uM” value amounted to 5.77%.

Regarding `COc1ccc(CN(C)C(=O)c2cccc(C(=O)N(C)Cc3ccc(OC)cc3)c2)cc1`, the “% Inhibition @ 10 uM” value is reported as -2.5%.

As to `CC1CCc2cc(F)ccc2N1C(=O)COc1ccccc1F` (stereo not shown), the “% Inhibition @ 10 uM” value is reported as -2.82%.

On to `COc1ccc2c(C)cc(N3CCN(C/C=C/c4ccccc4)CC3)nc2c1`, for which the “% Inhibition @ 10 uM” value was -11.5%.

On to `COc1ccc(C2(C(=O)NCc3ccccc3Cl)CCOCC2)cc1OC`, for which the “% Inhibition @ 10 uM” value is 4.11% and -1.88%.

For `Cc1nn(C(C)C(=O)N2CCC(Cc3ccccc3)CC2)c(=O)c2nn(-c3ccccc3)c(C)c12` (stereo not shown), the “% Inhibition @ 10 uM” value was -0.128%.

As to `Cc1nc(O)nc(O)c1S(=O)(=O)N1CCN(C(=O)c2cc(-c3ccc(Cl)cc3)[nH]n2)CC1`, the “% Inhibition @ 10 uM” value is on record as 2.75%.

In the case of `Cc1ccccc1-c1cc(C(=O)N[C@@H](CC(C)C)C(=O)NCC#N)ccc1Cl`, the “% Inhibition @ 10 uM” value was determined as 17%.

With `Oc1nc2cccnc2n1-c1ccccc1`, the “% Inhibition @ 10 uM” value is listed as 6.15%.

`CC(=O)NC1C(=O)N(C)N=C1c1ccccc1` (stereo not shown): the “% Inhibition @ 10 uM” value is 14.5%.

As to `COc1cccc(-c2noc(-c3cc4cccc(OC)c4oc3=O)n2)c1OC`, the “% Inhibition @ 10 uM” value is given as 6.05%.

As for `CCOc1ccc2oc(=O)cc(CSc3nc4cccnc4[nH]3)c2c1`, the “% Inhibition @ 10 uM” value came out at 6.3%.

For the compound `Cc1ccccc1-n1cc2c(c1-c1ccccc1Cl)c(=O)n(C)c(=O)n2C`, the “% Inhibition @ 10 uM” value is -3.12%.

For the compound `Cc1ccc(NC2=NC(=O)CC(C(=O)Nc3ccc(F)c(Cl)c3)S2)cc1` (stereo not shown), the “% Inhibition @ 10 uM” value was -10%.

`CC1CCC(C(=O)NC(Cc2ccccc2)C(=O)NCc2cccnc2)CC1` (stereo not shown): the “% Inhibition @ 10 uM” value was -9.05%.

Take `CC(C)C[C@H](NC(=O)N1CCC(N2CCCCC2)CC1)C(=O)N[C@@H](CCc1ccccc1)CNS(=O)(=O)c1ccc2ccccc2c1`: the “% Inhibition @ 10 uM” value is listed as -3.97%.

Consider `CC(=O)C1=C(O)C(=O)N(CCc2ccccc2)C1c1ccc(C(C)C)cc1` (stereo not shown), for which the “% Inhibition @ 10 uM” value is -4.97%.

As for `O=C1C2C3CCC(C3)C2C(=O)N1c1cccc(Cl)c1Cl` (stereo not shown), the “% Inhibition @ 10 uM” value was -12.7%.

Turning to `Cc1nn(Cc2ccccc2Cl)c(C)c1NC(=O)C(F)(F)F`, the “% Inhibition @ 10 uM” value stood at 4.98%.

Turning to `COc1ccc(-c2cc(C(F)F)n3ncc(C(=O)Nc4cccnc4Cl)c3n2)cc1`, the “% Inhibition @ 10 uM” value is given as -6.79%.

For the compound `CC1=C(C#N)C(C(F)(F)F)(C(F)(F)F)NC(c2ccco2)=N1`, the “% Inhibition @ 10 uM” value was -7.35%.

Regarding `COc1ccccc1N1CCN(C(=O)CN(c2cccc(Cl)c2Cl)S(C)(=O)=O)CC1`, the “% Inhibition @ 10 uM” value was -3.65%.

Turning to `Cc1ccc(Cl)cc1-n1ncc2c(NCCCOC(C)C)ncnc21`, the “% Inhibition @ 10 uM” value is 5.23%.

`CCOc1ccc(C2CC(c3cc(Br)ccc3F)n3ncnc3N2)cc1Cl` (stereo not shown): the “% Inhibition @ 10 uM” value is on record as 3.32%.

Consider `CCOc1ccccc1CNCCSc1nnnn1-c1ccccc1`, for which the “% Inhibition @ 10 uM” value is 0.596%.

In the case of `Cc1ccc(-c2ccc(Oc3ccc(C#N)c(C#N)c3)c(C)c2)cc1`, the “% Inhibition @ 10 uM” value was -3.16%.

With `CCN(CC)C(=O)c1ccccc1NC(=O)CN1C(=O)c2ccccc2C1=O`, the “% Inhibition @ 10 uM” value amounted to 6.51%.

For the compound `COc1c(Br)cc(/C=C2/SC(=O)NC2=O)cc1Br`, the “% Inhibition @ 10 uM” value stood at 1.58%.

As to `CC1CN=C(/C=C(\O)c2ccc(Cl)cc2)C(=O)N1` (stereo not shown), the “% Inhibition @ 10 uM” value was found to be 4.09%.

Turning to `Cc1cc(-c2ccccc2)n(-c2nnc(S)n2N)n1`, the “% Inhibition @ 10 uM” value is on record as -0.85%.

With `COc1ccc(CNC(=O)c2cnn(-c3ccc(F)cc3)c2-n2cccc2)cc1OC`, the “% Inhibition @ 10 uM” value was -0.742%.

Turning to `CCOc1ccccc1CNc1cccc(Cl)c1C`, the “% Inhibition @ 10 uM” value was -2.95%.

Regarding `Cc1ccc(-n2nnc3c(=O)n(Cc4cccc(F)c4)cnc32)cc1`, the “% Inhibition @ 10 uM” value was found to be 1.24%.

As to `COC1=C(OC)C2(C=CC1=O)CC(C)(C)N=C2SC` (stereo not shown), the “% Inhibition @ 10 uM” value is -5.38%.

Regarding `Cc1cccc(N2CCN(Cc3ccccc3[N+](=O)[O-])CC2)c1C`, the “% Inhibition @ 10 uM” value is -3.56%.
